Experimental findings from PubChem BioAssay (NCI) are described below.

The test system of this test is NCI-H322M lung. In words: NCI-60 one-dose screen, 48 h (100 = growth as untreated, 0 = no growth, -100 = all killed).

SMILES strings stand for the structures. Where a structure was tested more than once in an assay, its records may differ in their call.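 The test compound was applied at a single concentration to cells in 96-well plates for 48 hours, and percent growth was recorded.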 A number of entries come with more than one value. Only these are listed. Rule for the calls: active = growth percent below 10; inactive = the rest. The source may hold further records. This drug was run again and again over the years, at the concentration stated with the values; each value is one run. Marks such as (2×) say how often a value occurs here.

On to `COc1cccc2c1C(=O)c1c(O)c3c(c(O)c1C2=O)C[C@@](O)(C(=O)CO)C[C@@H]3OC1CC(N)C(O)C(C)O1` (stereo not given in full), for which the growth entry (0.25 µM, runs of 2012) was “inactive: 101 (5×), 83.3, 88.6, 74.9, 91.5, 98.5, 87.3, 78.7, 89.8, 88, 84.5 (2×), 90.2, 87.1, 102, 100, 94.7, 96.6, 91.6, 90.8 (2×), 99.5, 98.1 (2×), 94.4, 93.5, 86.8, 93.4, 92.1, 85 (2×), 96.7, 95.2 (3×), 92.2 (2×), 96.3, 94.5, 107, 95.3, 97.5, 95.9, 104, 95 (2×), 96.8, 91.4, 85.8, 103, 90.4 (2×), 83.2, 85.5, 93.8, 88.4, 87.4, 46.8%”; the growth result (0.25 µM, runs of 2013) is “inactive: 81.6 (3×), 86.3 (3×), 84 (2×), 89.7, 83.6, 93.6, 82.2, 88.4, 85.6, 91.6, 86.7, 88.1 (2×), 85.5 (2×), 87.2 (2×), 85.7 (2×), 81.4, 84.3 (2×), 87.4, 96.2, 92, 88.6, 80.9 (2×), 99.7, 95.1 (2×), 86.9 (2×), 94.1, 90.8, 89.8, 98.1, 89.5, 99.1, 89.1, 94.8, 92.5, 86.4, 86.8, 97.3, 78.9, 88.7, 76.6, 90.3, 84.8, 91.2, 72.8, 68.5, 64.5, 72.5, 58.3, 73.8 (2×), 84.1 (2×), 80.7, 79.2, 93.4, 75.8%”; the growth result (0.25 µM, runs of 2014) was “inactive: 83.5, 81.8, 70.5, 84.1, 85 (2×), 92.7, 85.7, 88.4, 90.4, 86.8 (2×), 90.9, 82.1 (2×), 90.5, 94.1, 87.1 (2×), 90.6, 87.2, 88.5 (2×), 83.2, 89.3, 84.5, 81.7, 89.1, 92.3, 87.4, 88.3 (2×), 85.1, 84 (2×), 91.4, 82.8 (2×), 81.6 (2×), 89.2, 91.5, 82.2, 72.3, 76.5 (2×), 77.8, 76.6, 73.6, 76.9 (2×), 76.1, 85.5, 82.9, 82.4, 78.1, 76.7, 78.8 (2×), 75.8 (2×), 80.4, 86.1, 79.2, 84.7, 81.2, 81.4, 71, 74.8, 81.9, 82.3, 78.2%”; the growth result (0.25 µM, runs of 2015) was “inactive: 84.1 (2×), 75.3, 73.9, 73.5, 80 (2×), 79.8, 88.9, 74.2, 85.1 (2×), 82.2, 78.8 (2×), 97.4, 68.8, 75 (2×), 76.8, 62.1 (2×), 78.1, 71.9, 77, 84.3, 79.5, 80.5, 81.5 (2×), 78, 78.7, 81.6, 72.3, 82.5, 77.6, 70.6, 79.7 (2×), 69.6 (2×), 66.6, 79.2 (2×), 75.1, 68 (2×), 66.7, 76.1, 69.8, 72.8, 70.2, 69.1 (2×), 70.9, 74.1, 84.5, 64.5, 84.7, 71, 77.3, 76.5, 72.9, 74.9, 77.1, 74.8, 73.6, 79, 73.2, 73.8, 87.1, 80.6, 81.7, 85.5%”; the growth result (0.25 µM, runs of 2016) is “inactive: 81.8 (2×), 74.4, 79.5 (2×), 66.9, 70.7, 73.8, 75.9, 65.8, 75.8, 72.7, 76.8 (3×), 65.4, 75.2 (2×), 61.4, 64.5, 64.7, 66.2 (2×), 70, 63.3, 63.4, 75.5 (2×), 69.1, 77.2, 77.6 (2×), 59.6, 76.1, 64.2, 70.8, 73.6, 63, 71.7, 72.2, 85.4, 71.5, 82.1, 74.3, 79.6 (2×), 72.8, 69.9, 69.8, 77.8, 66.3, 64.9, 86.4, 82.5, 82.3, 77.1, 79.8, 80.3, 81.5, 81.2, 80.6, 81.3, 82.4, 82, 83.2 (2×), 73.7, 76.5, 78.8, 75.1, 77, 74.1, 78.5, 80, 82.9%”; the growth entry (0.25 µM, runs of 2017) was “inactive: 75.7 (2×), 67.7, 71, 72.9 (2×), 75.4, 73.4 (2×), 75 (4×), 73.7, 72.2 (4×), 74.7 (2×), 74.2, 69.9, 71.8, 78.2, 74.9 (2×), 68.9, 72.5 (2×), 75.5, 71.9, 70.9, 70 (3×), 74.6 (3×), 73.3 (2×), 75.8, 69.7 (2×), 75.1 (2×), 70.8, 73.6 (2×), 72.1 (4×), 71.5, 76.1, 74.3, 75.6 (2×), 72.8, 76.8, 71.6 (2×), 72.3, 78.1 (2×), 73.5 (2×), 70.5, 72, 71.2, 80.6, 69.1, 69.5, 72.7, 65.6, 73.8, 77.2, 67.5, 75.9, 78%”. The growth entry is “inactive: 80.6 (2×), 80.8, 74.2, 74.3, 74.8, 71, 68.4, 72.1 (2×), 68.1, 71.2, 67, 79, 83.6 (3×), 78.7 (4×), 82.9, 75.6, 86.7, 83.4, 79.5, 77.1, 78.8, 74.6, 72.5, 70.1, 77.2, 72 (2×), 78.1, 79.7, 72.2, 78.2, 75.8, 81 (2×), 75.2, 80.1, 85.5, 74.4, 82.8, 82.2, 78.9, 81.8, 75.7, 69.1%” (0.25 µM, runs of 2018); “inactive: 64.7, 69.5, 68.8, 72.5 (2×), 73.9 (2×), 68.1, 69.3, 86.4, 84.8, 82.1, 78.8, 76.1 (2×), 77.2 (2×), 75, 77.3 (3×), 73.1, 74.9, 83.2, 81, 79.5, 80.8 (2×), 73.5, 77, 78.1, 76.9, 75.2, 77.1, 82.2, 78.2, 75.6, 86.5, 81.8, 76.8, 77.8%” (0.25 µM, runs of 2019); “inactive: 74.2, 77.6, 77.8, 74.1, 75.2 (2×), 72.8 (2×), 80.1, 76.7 (2×), 74.9, 73.6, 79.9, 75.1, 72.1, 72.3, 74.4 (2×), 81.5, 74, 82.1, 76.1, 78.2, 75.9, 79%” (0.25 µM, runs of 2020); “inactive: 82.1, 82.9 (2×), 82.8, 85.2, 79.5 (3×), 80.1, 80 (2×), 81.6, 78.1, 78.8 (2×), 76.1, 79.6, 76.4 (3×), 80.9, 78.5, 76.8, 77 (2×), 79.2, 81.3, 77.1, 77.6, 73.3, 86.1, 71.2, 64.3, 78 (2×), 73.8 (2×), 73.5 (2×), 74.2, 81.9, 82.4, 80.6, 81, 75.7, 75.4, 74.9, 63.6, 83.6, 70.1, 68.5, 78.7, 77.3%” (0.25 µM, runs of 2021); “inactive: 43.3, 45.3, 70.8, 78.9, 32.3, 73.4, 59.9, 74.4 (2×), 73.7, 79.5, 73.2, 72.9, 74.1, 78.1, 77.9, 73.5, 86.2, 90.9, 75.9, 88.4, 87.3, 97.8, 77.6, 78.7, 76.5%” (0.25 µM, runs of 2022); “active: -35.2, -14, -29.6, -23.7, -18.6, -33.8, 0.588, -22.4, -15.3, -25.6, -28.7, -11.7, -37.9, -56.2, -32.9, -34.9% and inactive: 60.2%” (25 µM, runs of 1991). Besides, the growth entry is “active: -54.9, -44.5, -47.9, -28.1 (2×), -31.7, -22.5, -35, -40.4 (2×), -45.3, -30.3, -40.1 (2×), -38.5, -35.8, -21.2 (2×), -32.3 (2×), -7.97, -33.6, -40.3, -24.9, -30.9, -46.9, -29.6 (2×), -35.4 (2×), -24.8, 4.87, -2.33, -23 (2×), 0.064, -46.6, -44.6 (2×), -48, -26.4 (3×), -31.5 (2×), -38.3, -7.02, -18.4, -14.5, -32.7, -37.6, -32.4, -48.7, -31.1, -41.2, -18.3, -24.2, -43.6, -34, -31.6, -48.4, -33, -22.3, -27 (2×), -36.6, -11.6, -32.5 (2×), -18.2, -31.2, -27.4, -35.6, -27.2, -2.29, -12.4, 4.05, -29.1, -27.5, -27.3, -18.6, -33.5, -22.4, -18.9, -29.4, -62.3, -10.9, 9.69, -28.7, -17.9, -41.6, -41.5, -55.1, -33.2, -14.6, -37.7, -35.1, -51.8, -22.7, -39.1 (2×), -23.2, -15.4, -28.5, -37.2, -32.1, 6.69, -40.5, -44, -66.4, 1.5, -36.8%” (25 µM, runs of 1992); “active: -19.1, -22.3, -36, -28.9, -38.2, -30.3, -35.5, -33.6, -41.1, -31.7, -19.8, -16.9, -27.3, -13.8, -25.5, -41.7, -29.8, -12.3, -5.64, -17.4, -24.9, -45.7, -45.6, -11.5, -29.6 (2×), -43.6, -24.4, -37.7, -32.6, -20.5, 2.35, -45.2, -27.4, -7.86, -10.2, -33.4, -41.6, -50.6, -59, -55.2, -35%” (25 µM, runs of 1993); “active: -40.4, -59.3, 2.64, -39.7, -10.6, -69.1, -16, -20.4, -18.4, -43.7, -40.7, -63.9, -38.3, -16.8, -35.7, -35.1, -25.6, -39.2, -2.64, -9.33, -9.08, -24.4, -26.2, -12.3, -26.6, -36.8, -1.78% and inactive: 11%, 10.2%” (25 µM, runs of 1994).
